Screen size: about 48,000 compounds; about 450 (0.94%) were called active. Another 19% or so got no clear call; they are omitted. Calls follow the shape of the dose curve; as a rule, active = well fitted inhibition curve with a large enough effect; inconclusive = small, poorly fitted or top-dose-only effect; inactive = no such curve, though single readings can be large or run the other way. This is one part of the list.
Experiment: Primary qHTS for Identification of Small Molecule Inhibitors of Huntingtin Promoter Activity; also: nearly all actives have a fitted effect of over 50% in size
Details: HEK293 HTT promoter firefly luciferase reporter (activity 0% = vehicle and -100% = no light), 24 h; series mostly up to 57.5 µM; activity change, negative = inhibition: at the top concentration
In short: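 HEK293 cells carrying firefly luciferase reporters were seeded at 2,500 per well in Opti-MEM and cultured for 24 h. They were then treated with compounds at up to 57.5 uM final for 24 h at 37 degrees C before Dual-Glo luminescence readout.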
Potency is read from the fitted curve at half-maximal effect.

| SMILES | activity change, negative = inhibition | Potency |
| --- | --- | --- |
| CCOc1ccc(OCC)c(NC(=O)c2ccc(-c3ccccc3)s2)c1 | inactive: 6.49% | – |
| O=C(OOC(=O)c1ccccc1)c1ccccc1 | inactive: -1.93% | – |
| CCCCc1nn2c(=O)cc(COC(=O)C3CCCCC3)nc2s1 | inactive: -6.55% | – |
| Cc1nc2nc(SCC(=O)NC3CCC(C)CC3)nn2c(C)c1Cc1ccccc1 (configuration not stated) | inactive: -16.6% | – |
| COC(=O)c1ccc(-c2nc3cc(NC(C)=O)ccc3o2)cc1 | inactive: 14% | – |
| Nc1cc(=O)[nH]c(N)n1 | inactive: -2% | – |
| COc1ccc(-n2c(=O)c3ccccc3n(Cc3cccc(C)c3)c2=O)cc1 | inactive: -17.3% | – |
| COc1cccc(Cn2c(CNS(=O)(=O)c3ccc(C(C)(C)C)cc3)nc3cccnc32)c1 | inactive: -13% | – |
| NC(=O)CCCCC1CCSS1 (configuration not stated) | inactive: 10.5% | – |
| O=C(Nc1nnc(S(=O)(=O)Nc2ccccc2)s1)C1CCCCC1 | inactive: -27.6% | – |
| CCCSc1nnc2[nH]c(=O)cc(C)n12 | inactive: -2.85% | – |
| CCOC(=O)Cn1c(=O)n(CC2CCCO2)c2nc(-c3ccc(C(C)C)cc3)nc(C(N)=O)c21 (configuration not stated) | inactive: -8.98% | – |
| Cc1ccccc1N(C)S(=O)(=O)c1nnc(NC(=O)C(C)C)s1 | inactive: -10.1% | – |
| COc1ccccc1N1CCN(CCCCNC(=O)c2ccc(-c3ccc(C(C)=O)cc3)cc2)CC1 | inactive: -2.1% | – |
| Cc1ccccc1NC(=O)Cn1c(=O)n(Cc2ccccc2)c(=O)c2sc3ccccc3c21 | inactive: -11% | – |
| CCOc1ccc(C(=O)NCC(c2ccco2)S(=O)(=O)c2cccs2)cc1 (configuration not stated) | inactive: -6.93% | – |
| Cc1ccccc1-c1nn2c(=O)cc(CN3CCN(S(=O)(=O)c4ccc(Cl)cc4)CC3)nc2s1 | inactive: 0.962% | – |
| COC(=O)c1ccc(C(=O)OC)c(NC(=O)c2cnn3c(C(F)F)cc(-c4ccccc4)nc23)c1 | inactive: -2.58% | – |
| CCC1CN(C(=O)Nc2ccc(Br)cc2F)c2ccccc2S1 (configuration not stated) | inactive: 0.357% | – |
| O=C(NCC(c1ccc(Cl)cc1)N1CCCCC1)c1ccccc1F (configuration not stated) | inactive: -15.6% | – |
| COc1ccccc1N1CCN(C(=O)CSc2n[nH]c(-c3ccccc3Cl)n2)CC1 | inactive: -2.32% | – |
| CCOc1ccc(OCC)c(NC(=O)CCc2nc3cccnc3n2-c2ccccc2)c1 | inactive: -19.5% | – |
| COC(=O)C(NC(=O)CCc1c(C)nc2c(c(C)nn2-c2ccccc2)c1C)C(C)C (configuration not stated) | inactive: 4.89% | – |
| Cc1ccccc1NC(=O)[C@H](CSCc1ccccc1)N1Cc2ccccc2C1=O | inactive: -8.9% | – |
| C#CCn1c(C2CC(=O)N(c3ccc(OCC)cc3)C2)nc2ccccc21 (configuration not stated) | inactive: 12.3% | – |

| SMILES | activity change, negative = inhibition | Potency |
| --- | --- | --- |
| CCN(CC)C(=O)C1CCN(c2nnc(C)c3c(C)n(-c4ccc(Cl)cc4)nc23)CC1 | inactive: -10.9% | – |
| O=C(NCc1ccc(F)cc1)c1cnc(N2CCCCC2)c2ccccc12 | inactive: -21.7% | – |
| NC(=O)Nc1cc(-c2ccc(CN3CCOCC3)cc2)sc1C(N)=O | inactive: 24.1% | – |
| CCCOc1ccc(CNC(=O)C2CCCN(c3nc4c(C)cc(C)cc4s3)C2)cc1 (configuration not stated) | inactive: 18.4% | – |
| COc1ccc(NC(=O)Cn2c(=O)n(CCCC(=O)NCCc3ccc(C)cc3)c(=O)c3ccccc32)cc1Cl | inactive: -3.77% | – |
| Cc1ccc(CCNC(=O)c2ccc3c(c2)N(Cc2ccccc2)C(=O)c2ccccc2S3=O)cc1 (configuration not stated) | inactive: -10.5% | – |
| Cc1cccc(NC(=O)c2ccc(F)c(S(=O)(=O)N3CCC4(CC3)OCCO4)c2)c1 | inactive: -37% | – |
| COc1cc(OC)c(NC(=O)N2CCc3cc(OC)c(OC)cc3C2CC(=O)O)cc1Cl (configuration not stated) | inactive: -14.1% | – |
| CC(C)Cn1c(=O)c2ccccc2n2c(CCC(=O)N3CCN(c4ccccc4)CC3)nnc12 | inactive: 3.6% | – |
| Cc1ccc2onc(CNC(=O)Nc3cc(F)ccc3F)c2c1 | inactive: -18.1% | – |
| Cc1ccc2c(c1)Cc1c(nc(-c3ccc(Cl)cc3)nc1SCC(=O)N1CCCCC1)O2 | inactive: -2.51% | – |
| Cc1ccc(Cl)cc1NC(c1ccc(F)cc1)c1nnc(-c2ccccc2)o1 (configuration not stated) | inactive: -32.7% | – |
| NS(=O)(=O)c1cc2c(cc1C(F)(F)F)NCNS2(=O)=O | inactive: 5.28% | – |
| CC(C)NC[C@@H](O)COc1ccc(CC(N)=O)cc1 | inactive: 0.667% | – |
| COc1ccc(Nc2cc(C)nc3c(C)c(C)ccc23)cc1 | inactive: -16.3% | – |
| O=C(CSc1nnc(-c2ccc(Cl)cc2)o1)Nc1ccc(F)cc1 | inactive: 67.3% | – |
| CC(=O)N1CCc2c(sc3c2c(=O)n(CCc2ccccc2)c(=O)n3CC(=O)Nc2ccc(C)c(F)c2)C1 | inactive: -23.4% | – |
| COc1cccc2c1Oc1ncccc1N(c1ccc(C(=O)NCc3ccccc3Cl)s1)C2 | inactive: -24.6% | – |
| CCOC(=O)c1c(NC(=O)c2ccc(OCC)c(Br)c2)sc2c1CCCC2 | inactive: -19.2% [at 11.5 µM] | – |
| Cc1cc2oc(=O)c(CC(=O)NCCc3ccccc3F)c(C)c2c2occ(C(C)(C)C)c12 | inactive: 4.02% | – |
| COc1c(N2C[C@@H]3CCCN[C@H]3C2)c(F)cc2c(=O)c(C(=O)O)cn(C3CC3)c12 | inactive: 1.3% | – |
| O=c1c2cc3c(cc2nc2sc(Nc4cccc([N+](=O)[O-])c4)nn12)OCO3 | inactive: 0.255% | – |
| Cc1ccc(C)c(S(=O)(=O)c2nnn3c2nc(N2CCN(C)CC2)c2sccc23)c1 | inactive: -9.55% | – |
| COc1ccc(CC(=O)NCC(c2cccs2)S(=O)(=O)c2ccc(F)c(C)c2)cc1 (configuration not stated) | inactive: -7.46% | – |
| Cc1cccc(CN2CCC(CNC(=O)Cn3ncc4c([nH]c5ccc(C)cc54)c3=O)CC2)c1 | inactive: 3.07% | – |

| SMILES | activity change, negative = inhibition | Potency |
| --- | --- | --- |
| CCOC(=O)c1cc(S(=O)(=O)NCc2ccc(Cl)cc2)[nH]n1 | inactive: -17.8% | – |
| Cc1ccccc1CSc1ncc(Cl)c(C(=O)Nc2nc3ccc(F)cc3s2)n1 | inactive: -12.6% | – |
| COc1ccccc1C(=O)N/C(=C\c1cn(S(=O)(=O)N(C)C)c2ccccc12)C(=O)NCCCn1ccnc1 | inactive: 4.51% | – |
| Cc1cc2n(n1)CCC(=O)N2Cc1ccc(C(=O)Nc2cc(Cl)ccc2C)cc1 | inactive: -27.2% | – |
| COc1ccccc1NC(=O)C1=C(C)Nc2nc(SC)nn2C1c1ccccc1Cl (configuration not stated) | inactive: 25.3% | – |
| CCCN(CCC)C(=O)Cn1c(=O)n(-c2cccc(C)c2)c(=O)c2c1c1cc(OC)ccc1n2C | inactive: -17.8% | – |
| CSc1ccc(-c2nnn(CC(=O)Nc3sc4c(c3C#N)CCC(C(C)(C)C)C4)n2)cc1 (configuration not stated) | inactive: 7.5% | – |
| CCCCOc1ccc(C(C)NC(=O)CN2C(=O)CSc3ccc(S(=O)(=O)N4CCOCC4)cc32)cc1 (configuration not stated) | inactive: -24.4% | – |
| COc1cccc(-c2cc(C(F)(F)F)nc(NCCc3ccc(OC)c(OC)c3)n2)c1 | inactive: -26.8% | – |
| COc1ccc(-c2[nH]nc3nc(-c4cc(Br)ccc4OC)cc(C(=O)O)c23)cc1 | inactive: -10.2% | – |
| Cc1c(C(=O)OC2CCCCC2)[nH]c2c1C(=O)CC(c1ccc(F)cc1)C2 (configuration not stated) | inactive: -22.8% | – |
| CC(C)CC(=O)NCC(c1ccc2c(c1)OCO2)N1CCN(c2ccccc2)CC1 (configuration not stated) | inactive: -7.39% | – |
| COc1ccccc1CN1CCC(CNC(=O)c2cnn(-c3ccccc3Cl)c2C2CCN(C(=O)OC(C)(C)C)CC2)CC1 | inactive: -22.1% | – |
| CCC(=O)Nc1ccc(Cl)c(-c2nc3ccccc3[nH]2)c1 | inactive: 11.5% | – |
| Cc1cccc(NC(=O)c2ccc(-n3c(C)nnc3C)cc2)c1 | inactive: 4.37% | – |
| Cc1ccc(-n2ncc3c(N4CCCCCC4)ncnc32)cc1Cl | – | active: 355 nM |
| COc1ccccc1CNC(=O)CCc1c(C)nc2cc(-c3ccc(Cl)cc3)nn2c1C | – | active: 3980 nM |
| O=S(=O)(c1ccc(F)cc1)N1CCC(Oc2cccc(C(F)(F)F)c2)CC1 | inactive: -11.5% | – |
| COc1c(Cl)cc(Cl)cc1C(=O)Nc1cccc(-c2nc3ccccc3o2)c1C | inactive: -12.9% | – |
| CCn1c(COc2ccc(Cl)cc2Cl)nc2ccccc21 | inactive: 41.7% | – |
| CCc1ccccc1NC(=O)c1cn(C)c(=O)c2ccccc12 | inactive: -10.9% | – |
| COc1ccc(S(=O)(=O)N2Cc3ccccc3CC2C(=O)Nc2ccc(C)cc2)cc1OC (configuration not stated) | inactive: -23% | – |
| Cc1cccc(CCNC(=O)c2cc(S(=O)(=O)N3CCCCC3)c[nH]2)c1 | inactive: -13.8% | – |
| C/C=C/c1ccc(OC)cc1 | inactive: -0.836% | – |
| Cc1cccc(N2CCN(C(=O)c3ccc4c(c3)N(Cc3ccccc3)C(=O)c3ccccc3S4(=O)=O)CC2C)c1 (configuration not stated) | inactive: -27.9% | – |

| SMILES | activity change, negative = inhibition | Potency |
| --- | --- | --- |
| Cc1ccc(C)c(NC(c2ccccc2)c2nnc(-c3ccccc3F)o2)c1 (configuration not stated) | inactive: 22.1% | – |
| Clc1ccc(CCNc2nc3cc(Cl)c(Cl)cc3n3cnnc23)cc1 | inactive: -0.573% | – |
| COc1ccc(CCN2C(=O)N(c3cccc(C)c3)C(=O)C2CC(=O)Nc2ccccc2)cc1OC (configuration not stated) | inactive: -27.8% | – |
| COc1cc(-c2nc(SCC(=O)Nc3ccc4c(c3)OCO4)c(-c3ccccc3)[nH]2)cc(OC)c1OC | inactive: -14.5% | – |
| COc1ccc(-c2nnc(SCC(=O)N3CCC(C)CC3)o2)cc1 | inactive: -3.37% | – |
| COc1ccccc1CNC(=O)CSc1ncc(S(=O)(=O)c2ccc(C)c(Cl)c2)c(=O)[nH]1 | inactive: -14.6% | – |
| CNC(=O)C1CCC(Cn2c(=O)c3sccc3n(CC(=O)N3CCCC(C)C3)c2=O)CC1 (configuration not stated) | inactive: -6.03% | – |
| CCCN(CCC)CCc1cccc2c1CC(=O)N2 | inactive: 9.49% | – |
| COCCCNC(=O)C1CCN(Cc2cc3ccccc3n2Cc2cccc(C)c2)CC1 | inactive: -13.3% | – |
| CCCCOC(=O)c1c(C)oc2c1cc(NS(=O)(=O)c1cc(OC)ccc1OC)c1ccccc12 | inactive: -35.6% | – |
| COc1ccc(-c2c(C)c3ccc(O)c(CN4CCOCC4)c3oc2=O)cc1OC | inactive: -22.2% | – |
| CCCN1Cc2cccc(C(=O)Nc3cc(Cl)ccc3C)c2C1=O | inactive: 0.0464% | – |
| Cc1cc(C)c2c(c1)c(C)cc1nnc(SCC(=O)c3ccccc3)n12 | inactive: -2.57% | – |
| O=C(CSc1nccn1Cc1ccc(F)cc1)NCc1ccco1 | inactive: -9.73% | – |
| CC(C)(C)c1ccc(C(=O)Nc2ccc(-c3nc4ccccc4o3)c(O)c2)cc1 | inactive: -16.4% | – |
| O=C(CN1C(=O)c2ccccc2Sc2ccc(C(=O)N3CCOCC3)cc21)Nc1ccc(Cl)cc1F | inactive: -2.57% | – |
| Cc1cccc(NC(=O)c2sc3ncnc(N(C)C4CCCCC4)c3c2C)c1C | inactive: 0.862% | – |
| CCN(CC)c1ccc2cc(-c3nc4sc5c(c4c(=O)[nH]3)CCC(C(C)(C)C)C5)c(=O)oc2c1 (configuration not stated) | inactive: -20.8% | – |
| COc1cccc(NC(=O)c2c(C)oc3nc(C)nc(N4CCCC4)c23)c1 | inactive: -0.636% | – |
| CCC(=O)N1CCc2cc(S(=O)(=O)CCC(=O)N3CCN(c4cccc(C)c4C)CC3)ccc21 | inactive: -2% | – |
| COc1ccc(CC(=O)Nc2nc3c(s2)CCCC3)cc1 | inactive: -25.8% | – |
| Cc1ccc2c(c1)N(C(=O)CCC(=O)NCc1cccc(F)c1)CC(C)O2 (configuration not stated) | inactive: -30.6% | – |

— PubChem BioAssay AID1508623 (National Center for Advancing Translational Sciences (NCATS), 2021)
